Assay [1] deals with T1, Tau204-222 phospho-peptide (pS214) (human, also: SCBiot-(dPEG4) label).
T1 peptide: GTPGSRSRTP[pS]LPTPPTRE
Nature of the assay: one point ELISA. The source says: (§1) One-point ELISA was used to determine differential binding based on the individual phosphorylation patterns of each peptide. OD values (450 nm) were collected (as shown in Table 13), where a stronger positive signal is shown as a higher OD value, which is indicative of increased binding.
On the technique in general: An ELISA detects its analyte on a solid surface through an enzyme-linked reagent.

The target of assay [2] is T2, Tau204-222 phospho-peptide (pS214/pT217) (human, also: SCBiot-(dPEG4) label).
T2 peptide: GTPGSRSRTP[pS]LP[pT]PPTRE
Nature of the assay: one point ELISA.
Text: as §1

For assay [3], the target named is T3, Tau204-222 phospho-peptide (pT212) (human, also: SCBiot-(dPEG4) label).
T3 peptide: GTPGSRSR[pT]PSLPTPPTRE
Nature of the assay: one point ELISA.
Text: as §1

Assay [4] deals with T4, Tau204-222 phospho-peptide (pT217) (human, also: SCBiot-(dPEG4) label).
T4 peptide: GTPGSRSRTPSLP[pT]PPTRE
Nature of the assay: one point ELISA.
Text: as §1

Assay [5] has as its target T5, Tau204-222 phospho-peptide (pT212/pS214/pT217) (human, also: SCBiot-(dPEG4) label).
T5 peptide: GTPGSRSR[pT]P[pS]LP[pT]PPTRE
Nature of the assay: one point ELISA.
Text: as §1

Assay [6] concerns the target T6, Tau204-222 phospho-peptide (pT212/pT217) (human, also: SCBiot-(dPEG4) label).
T6 peptide: GTPGSRSR[pT]PSLP[pT]PPTRE
Nature of the assay: one point ELISA.
Text: as §1

For assay [7], the target named is T7, Tau204-222 phospho-peptide (pT212/pS214) (human, also: SCBiot-(dPEG4) label).
T7 peptide: GTPGSRSR[pT]P[pS]LPTPPTRE
Nature of the assay: one point ELISA.
Text: as §1

A further assay concerns the target T8, iPHF (UniProt P10636-8 2-441, limits assumed).
T8 construct: also called iPHF tau
Nature of the assay: BLI (Octet), antibody on biosensor tip, iPHF in solution. The method, then: Anti-human tau antibodies were assessed for affinity for iPHF by Octet (ForteBio, Menlo Park, CA) analysis. A set of recombinant human IgG1 antibodies were prepared with clone-specific variable domain pairs selected from those presented in Table 1 and human IgG1 constant domains. Candidate antibodies were immobilized on biosensor tips (ForteBio) in kinetic buffer (ForteBio). Biosensor tips were then washed before introduction of a solution of iPHF in kinetic buffer for analysis of association and dissociation with candidate antibodies.
(In general: BLI is a label-free optical method that tracks binding on a fibre tip over time.)

In assay [8] the target is enriched paired helical filament tau protein (ePHF; sarkosyl insoluble tau) (human, UniProt P10636 2-758). Nature of the assay: direct ELISA, ePHF coated. The procedure: A set of recombinant human IgG1 antibodies were prepared with clone-specific variable domain pairs selected from those presented in Table 1 and human IgG1 constant domains. These candidate antibodies were analyzed for binding to ePHF and specificity for ePHF over wild type tau by direct ELISA.
For direct ePHF and wildtype tau ELISA, plates were first coated with ePHF or wild type tau. Antigen solutions were prepared in PBS and 50 μL were pipetted into each well. Plates were covered and incubated for one hour at 37° C. or overnight at 4° C. Plates were then washed and blocked by addition of 150 μl of blocking buffer to each well and incubated one hour at room temperature. Plates were then washed before addition of serially diluted candidate antibody samples prepared in blocking buffer. Detection of candidate antibody binding was carried out by washing plates and adding a solution of enzyme-labeled secondary antibody in blocking buffer to each well. Secondary antibody binding was detected by addition of substrate and spectrophotometric analysis of resulting reaction product.

Where no end group is shown, it is not given here. [ ]: non-standard residue; d: D form. pT = C[C@@H](OP(=O)(O)O)[C@H](N)C(=O)O; pS = N[C@@H](COP(=O)(O)O)C(=O)O

iPHF, sequence (P10636 other isoform, or with tags, fused parts or gaps limits assumed): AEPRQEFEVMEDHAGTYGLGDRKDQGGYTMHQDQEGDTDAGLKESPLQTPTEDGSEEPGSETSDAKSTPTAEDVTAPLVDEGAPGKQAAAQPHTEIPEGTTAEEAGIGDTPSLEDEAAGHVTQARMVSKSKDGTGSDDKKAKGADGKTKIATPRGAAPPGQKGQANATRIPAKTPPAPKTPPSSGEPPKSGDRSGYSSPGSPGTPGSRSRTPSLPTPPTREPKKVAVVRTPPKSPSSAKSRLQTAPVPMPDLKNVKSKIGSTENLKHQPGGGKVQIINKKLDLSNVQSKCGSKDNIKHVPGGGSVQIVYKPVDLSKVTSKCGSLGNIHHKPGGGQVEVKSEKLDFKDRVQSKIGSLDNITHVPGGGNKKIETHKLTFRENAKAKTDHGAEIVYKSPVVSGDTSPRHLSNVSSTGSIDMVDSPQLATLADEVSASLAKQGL

B1: VY002 (antibody, V domains shown)
VH: [in this place about 100 residues]DYPKDVWGQGTTVTVSS
VL: DIVMTQSPDSLAVSLGERATINCKSSQSVLYSSKNKNYLAWYQQKPGQPPKLLIYWASTRESGVPDRFSGSGSGTDFTLAISSLQAEDVAVYYCQQYYSSPYTFGQGTKLEIK
For B1, the “OD (450 nm)” value in assay [1] was determined as 0.058 OD450; in assay [2], 0.062 OD450; in assay [3] it was 0.055 OD450; in assay [4] it was 0.068 OD450; in assay [5] it was 0.06 OD450; in assay [6], 0.06 OD450. In addition, the “OD (450 nm)” value in assay [7] turned out to be 0.055 OD450. The Kd (commonly the equilibrium constant for the complex coming apart) in the assay with iPHF turned out to be 1000 pM. In addition, the EC50 (in general, the concentration at which the effect is half-maximal) in assay [8] turned out to be 30 pM.

(Values after patent publication US20250243263A1 (VOYAGER THERAPEUTICS, published 2025).)
